# Experimental data from the supplement of paper PMC11348887.
# Structures can show the parent of a compound that is named as a salt. This is one part of the list. No stated cut-off is given here; in the data, active = -2 or less and inactive = the rest. Single values are uncertain, as repeats are few or missing.
# Test system: hPSC-derived cortical neurons (WA09)
# Assay: nuclei number (viability) z-score; higher = more surviving cells
# Conditions: 5 µM; treatment: days 7-14 after plating, readout day 21
# 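Further: nuclei counted from DAPI counterstain by automated high-content image analysis, four fields per well at ×20 in 384-well plates, with sequential b-score then z-score normalization.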
row,SMILES,nuclei number (z-score)
1,c1cc(-c2cnn3cc(-c4ccc(N5CCNCC5)cc4)cnc23)c2cccnc2c1,active: -5.26
2,COc1ccc(/C=C\c2cc(OC)c(OC)c(OC)c2)cc1O [Combretastatin A4],active: -4.77
3,CCCC1O[C@@H]2C[C@H]3[C@@H]4CCC5=CC(=O)C=C[C@]5(C)[C@H]4[C@@H](O)C[C@]3(C)[C@]2(C(=O)CO)O1 (stereo partly drawn) [Budesonide],inactive: 0.723
4,CNC(=O)[C@@H](c1ccccc1)N1CCc2cc(OC)c(OC)cc2[C@@H]1CCc1ccc(C(F)(F)F)cc1 [Almorexant HCl],inactive: 0.0452
5,COc1cc(C(C)=O)ccc1OCCCN1CCC(c2noc3cc(F)ccc23)CC1 [Iloperidone],inactive: 0.171
6,CCOC(=O)[C@H](CCc1ccccc1)N[C@H]1CCCN2CCC[C@@H](C(=O)O)N2C1=O [Cilazapril Monohydrate],inactive: 0.446
7,COc1ccc(C(=O)CC(=O)c2ccc(C(C)(C)C)cc2)cc1 [Avobenzone],inactive: -0.237
8,COc1c(N2C[C@@H]3CCCN[C@@H]3C2)c(F)cc2c(=O)c(C(=O)O)cn(C3CC3)c12 [Moxifloxacin HCl],inactive: 0.0774
9,COc1ccc(C(=O)c2ccccc2)c(O)c1 [Oxybenzone],inactive: -0.606
10,CC1(C)CCC[C@]2(C)[C@H]3CC(=O)O[C@]3(C)CC[C@@H]12 [Sclareolide],inactive: 0.174
11,CC(=O)OCC(=O)[C@@]1(O)[C@H](C)C[C@H]2[C@@H]3CCC4=CC(=O)C=C[C@]4(C)[C@@]3(F)[C@@H](O)C[C@@]21C [Dexamethasone Acetate],inactive: -0.986
12,COc1ncnc(NS(=O)(=O)c2ccc(N)cc2)c1OC [Sulfadoxine],inactive: -1.19
13,COc1ccc2[nH]c([S@@+]([O-])Cc3ncc(C)c(OC)c3C)nc2c1 [Esomeprazole Sodium],inactive: 1.29
14,COc1ccc2[nH]c([S@@+]([O-])Cc3ncc(C)c(OC)c3C)nc2c1 [Esomeprazole Magnesium],inactive: 0.243
15,Cc1cc(N2CCOCC2)cc2[nH]c(-c3c(NC[C@@H](O)c4cccc(Cl)c4)cc[nH]c3=O)nc12,inactive: 0.565
16,CC(C)NCC(O)c1ccc(O)c(O)c1 (stereo not drawn) [Isoprenaline HCl],inactive: 0.0452
17,CS(=O)(=O)N1CCN(Cc2cc3nc(-c4cccc5[nH]ncc45)nc(N4CCOCC4)c3s2)CC1,inactive: 0.393
18,CC(C)(CCCCCC(O)CCCCCC(C)(C)C(=O)O)C(=O)O,inactive: 0.28
19,Nc1nc2c(ncn2COCCO)c(=O)[nH]1 [Aciclovir],inactive: -0.979
20,O=S(=O)(c1ccccc1)N(CC(F)(F)F)c1ccc(C(O)(C(F)(F)F)C(F)(F)F)cc1,inactive: 0.155
21,CC#CC(=O)Nc1ccc2ncnc(Nc3cccc(Br)c3)c2c1,inactive: 0.038

row,SMILES,nuclei number (z-score)
1,O=C(O)c1ccc(N2C(=O)/C(=C\c3ccc(-c4ccc([N+](=O)[O-])cc4)o3)C=C2c2ccccc2)cc1,inactive: -0.0119
2,COc1cc(F)c(F)c(Nc2ccc(I)cc2F)c1NS(=O)(=O)C1(C[C@H](O)CO)CC1 [Refametinib (RDEA119_ Bay 86-9766)],inactive: 0.0391
3,CN[C@@H]1[C@@H](O)[C@@H](O[C@@H]2[C@@H](O)[C@H](O[C@H]3O[C@H](CN)[C@@H](O)[C@H](O)[C@H]3O)[C@@H](N)C[C@H]2NC(=O)[C@@H](O)CN)OC[C@]1(C)O [Isepamicin Sulphate],inactive: 3.88
4,C#C[C@]1(O)CC[C@H]2[C@@H]3CCc4cc(O)ccc4[C@H]3CC[C@@]21C [Ethinyl Estradiol],inactive: 0.023
5,O=C(O)C(Cc1c[nH]c2ccccc12)N1C(=O)c2ccccc2C1=O (stereo not drawn),inactive: 0.0815
6,CCOc1cc(CC(=O)N[C@@H](CC(C)C)c2ccccc2N2CCCCC2)ccc1C(=O)O [Repaglinide],inactive: 0.0855
7,CCOC(=O)C1=C(C)NC(C)=C(C(=O)OCC)C1c1ccccc1/C=C/C(=O)OC(C)(C)C [Lacidipine],active: -2.13
8,C[C@@H]1O[C@@H](OC[C@H]2O[C@@H](Oc3c(-c4ccc(OCCO)c(OCCO)c4)oc4cc(OCCO)cc(O)c4c3=O)[C@H](O)[C@@H](O)[C@@H]2O)[C@H](O)[C@H](O)[C@H]1O [Troxerutin],inactive: -0.0501
9,CCN(CC)C(=O)/C(C#N)=C/c1cc(O)c(O)c([N+](=O)[O-])c1 [Entacapone],inactive: 0.455
10,O=C1C(CC[S+]([O-])c2ccccc2)C(=O)N(c2ccccc2)N1c1ccccc1 (racemic) [(+/-)-Sulfinpyrazone],inactive: 2.79
11,CC1(C)O[C@@H]2C[C@H]3[C@@H]4CCC5=CC(=O)CC[C@]5(C)[C@@]4(F)[C@@H](O)C[C@]3(C)[C@]2(C(=O)CCl)O1 [Halcinonide],inactive: 0.743
12,C[C@]12C=CC(=O)C=C1CC[C@H]1[C@@H]3C[C@@H](O)[C@](O)(C(=O)CO)[C@@]3(C)C[C@H](O)[C@@]12F [Triamcinolone],inactive: -0.169
13,N#Cc1ccc(COC[C@H]2O[C@@H](n3c(NCc4ccc(Cl)c(Cl)c4)nc4c(N)ncnc43)[C@H](O)[C@@H]2O)cc1,inactive: -0.525
14,CC(=O)O[C@H]1C[C@@H]2CC[C@@H]3[C@H](CC[C@@]4(C)[C@H]3C[C@H]([N+]3(C)CCCCC3)[C@@H]4OC(C)=O)[C@@]2(C)C[C@@H]1N1CCCCC1 [Vecuronium Bromide],inactive: 1.3
15,C[C@@H](O)[C@H]1C(=O)N2C(C(=O)O)=C(S[C@@H]3CN[C@H](C(=O)N(C)C)C3)[C@H](C)[C@H]12 [Meropenem],inactive: 0.83
16,Cn1nnc(-c2ccc3c(c2)[nH]c2nc(Cc4ccccc4)nc(NC4CCC(N)CC4)c23)n1 (stereo not drawn),active: -4.68
17,CN(C)Cc1cccc(N=C(c2ccccc2)c2c(O)[nH]c3cc(C(=O)N(C)C)ccc23)c1,inactive: 1.04
18,CCCCCC(=O)O[C@]1(C(C)=O)CC[C@H]2[C@@H]3CCC4=CC(=O)CC[C@]4(C)[C@H]3CC[C@@]21C [Hydroxyprogesterone caproate],inactive: 0.786
19,Cc1cc2c(C(N)=O)cccc2n1-c1nc2c(c(NCc3ccccc3)n1)COCC2,active: -6.57
20,Cc1coc2c1C(=O)C(=O)c1c-2ccc2c1CCCC2(C)C [Tanshinone IIA],inactive: 0.362
21,Cc1cn2cc(C(=O)N(C)CCO)cc(N[C@@H]3CCOc4cccc(C)c43)c2n1,inactive: -0.762

row,SMILES,nuclei number (z-score)
1,CC[C@H]1OC(=O)C[C@@H](O)[C@H](C)[C@@H](O[C@@H]2O[C@H](C)[C@@H](O)[C@H](N(C)C)[C@H]2O)[C@@H](CCN2C[C@H](C)C[C@H](C)C2)C[C@@H](C)C(=O)/C=C/C(C)=C/[C@@H]1CO[C@@H]1O[C@H](C)[C@@H](O)[C@@H](OC)[C@H]1OC [Tilmicosin],inactive: -0.0736
2,O=C1Cc2c([nH]c3ccc(Br)cc23)-c2ccccc2N1 [Kenpaullone],inactive: -0.0269
3,CCc1c(O)cc(O)c(C(=O)c2ccc(OCCN3CCOCC3)c(OC)c2)c1CC(=O)N(CCOC)CCOC,active: -7.38
4,CNCCCC12CCC(c3ccccc31)c1ccccc12 [Maprotiline HCl],inactive: -0.615
5,OC(c1cc(C(F)(F)F)nc2c(C(F)(F)F)cccc12)C1CCCCN1 (stereo not drawn) [Mefloquine HCl],active: -3.73
6,COc1ccc2c(c1)c(CC(=O)N1CCOCC1)c(C)n2C(=O)c1ccc(Cl)cc1,inactive: 0.801
7,Cc1ccc(-n2sc(=O)n(Cc3ccc(F)cc3)c2=O)cc1,inactive: 2.94
8,Cc1cc(Cl)ccc1OCCCC(=O)NO [Droxinostat],inactive: -0.545
9,O=C(NCCN1CCOCC1)c1ccc(Cl)cc1,inactive: 0.196
10,C/C(=C\C(=O)Nc1ccccc1C(=O)O)c1ccc2ccccc2c1,inactive: 0.0308
11,O=C(c1ccc(/C=C/c2n[nH]c3ccccc23)cc1)N1CCNCC1,inactive: -0.154
12,C[C@H](Cc1cc2c(c(C(N)=O)c1)N(CCCO)CC2)NCCOc1ccccc1OCC(F)(F)F [Silodosin],inactive: -0.161
13,CN(C)CCOc1ccc(-c2nc(-c3ccncc3)c(-c3ccc4c(c3)CC/C4=N\O)[nH]2)cc1,active: -8.72
14,CCCC(CCC)C(=O)O[C@H]1C[C@H]2CC[C@@H](C1)[N+]2(C)C [Anisotropine Methylbromide],inactive: -1.18
15,Nc1ccc(C(=O)O)cc1 [4-Aminobenzoic acid],inactive: 0.967
16,O=C(O)C1=CO[C@@H](O[C@@H]2O[C@H](CO)[C@@H](O)[C@H](O)[C@H]2O)[C@@H]2C(CO)=CC[C@H]12 [Geniposidic acid],inactive: 1.04
17,CS(=O)(=O)c1ccc(-c2cnc(N)c(C(=O)Nc3ccccc3)n2)cc1,inactive: 0.496
18,NS(=O)(=O)c1cc(Cl)c(Cl)c(S(N)(=O)=O)c1 [Dichlorphenamide],inactive: 0.184
19,O=C(Oc1ccccc1C(=O)O)c1ccccc1O [Sasapyrine],inactive: 1.01
20,COc1c(C)c2c(c(O)c1C/C=C(\C)CCC(=O)O)C(=O)OC2 [Mycophenolic acid],inactive: 0.584
21,CC1(C)CC[C@]2(C(=O)O)CC[C@]3(C)C(=CC[C@@H]4[C@@]5(C)CC[C@H](O)C(C)(C)[C@@H]5CC[C@]43C)[C@@H]2C1 [Oleanolic Acid],inactive: -0.196
